# From PubChem BioAssay AID493170 (National Center for Advancing Translational Sciences (NCATS), 2011)
# The shares of active, inactive and inconclusive entries below differ from those in the screen. No potency is given beside an inconclusive call; the fits are too rough. Activity calls are given as the source filed them. Calls come from the whole dose curve; as a rule, active = well fitted inhibition curve with a large enough effect; inconclusive = small, poorly fitted or top-dose-only effect, or effect the other way; inactive = flat fitted curve, though single readings scatter.
# Target: Ubiquitin carboxyl-terminal hydrolase 2 (Homo sapiens) (UniProt O75604)
# Sequence of UniProt O75604 (O75604 whole entry, looked up): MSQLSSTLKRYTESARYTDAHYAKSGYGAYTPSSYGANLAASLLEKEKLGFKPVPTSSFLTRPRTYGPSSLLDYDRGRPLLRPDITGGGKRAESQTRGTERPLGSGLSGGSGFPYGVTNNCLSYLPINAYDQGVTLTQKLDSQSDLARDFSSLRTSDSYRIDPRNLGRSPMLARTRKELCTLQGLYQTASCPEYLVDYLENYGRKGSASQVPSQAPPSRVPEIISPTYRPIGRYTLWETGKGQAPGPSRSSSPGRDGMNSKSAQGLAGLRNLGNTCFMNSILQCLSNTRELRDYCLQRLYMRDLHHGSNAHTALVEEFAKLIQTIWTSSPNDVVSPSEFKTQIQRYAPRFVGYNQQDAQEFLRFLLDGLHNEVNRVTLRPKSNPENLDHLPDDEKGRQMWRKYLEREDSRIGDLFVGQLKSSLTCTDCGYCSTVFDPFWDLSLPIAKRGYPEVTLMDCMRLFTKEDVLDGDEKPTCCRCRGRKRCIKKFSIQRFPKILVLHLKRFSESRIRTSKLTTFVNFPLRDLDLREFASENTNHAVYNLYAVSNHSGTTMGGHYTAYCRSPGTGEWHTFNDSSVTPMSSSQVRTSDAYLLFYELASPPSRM
# Experiment: Ub-rhodamine 110 based assay for inhibitors Ubiquitin-specific Protease USP2a; note: nearly all actives have a fitted effect of over 50% in size
# Settings: USP2a Ub-rhodamine110 cleavage, fluorescence; series mostly up to 38.3 µM
# Summary of the method: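 5 nM USP2a preincubated with compounds for 30 min at RT in 20 mM Tris-HCl pH 8.0, 2 mM CaCl2, 2 mM beta-mercaptoethanol, 0.05% CHAPS. Cleavage of 150 nM Ub-rhodamine 110 read kinetically (Ex 485/Em 531) for 7 min.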
# Potency is the fitted concentration of half-maximal effect; tags give direction and shape of the fitted curve.
row,SMILES,Potency
1,O=C(Nc1ccc(Nc2ccncc2)cc1)c1ccc(Nc2ccnc3ccc([N+](=O)[O-])cc23)cc1[N+](=O)[O-],"inconclusive [inhibitor, partial curve, poor fit]"
2,O=C(CCn1c(=O)c2ccccc2n(Cc2ccccc2)c1=O)NCc1ccc2c(c1)OCO2,"inconclusive [inhibitor, single point]"
3,Cc1ccc(C(=O)CSc2nnc(CNc3nc(-c4ccccc4)cs3)n2C)cc1,"inconclusive [inhibitor, single point]"
4,O=C(OCc1nc2ccccc2[n+]([O-])c1C(=O)c1ccccc1)c1cccs1,"inconclusive [activator, full curve, poor fit]"
5,Cn1nc(CC(=O)NCc2ccc(F)cc2)c2ccccc2c1=O,inactive
6,CCCCOC1(c2ccccc2)NC(=S)NN=C1c1ccccc1 (centres undefined),inactive
7,O=C(Nc1cccc(S(=O)(=O)NC2=NCCC2)c1)c1cc(-c2ccco2)nc2ccccc12,"inconclusive [inhibitor, partial curve, poor fit]"
8,Cc1cc(OCC(=O)Nc2ccc(N3CCCC3)cc2)cc(C)c1Cl,"inconclusive [inhibitor, single point]"
9,Cn1cccc1CC(=O)N/N=C/C=C/c1ccco1,"inconclusive [inhibitor, partial curve, poor fit]"
10,CCC(C)Sc1nc2c(c(=O)[nH]1)C(c1cccs1)C1=C(CCCC1=O)N2 (centres undefined),"inconclusive [inhibitor, partial curve, poor fit]"
11,Cc1ccc(N2CCN(C(=O)CCc3nc4ccccc4[nH]3)CC2)c(C)c1,inactive
12,CCOc1ccccc1C(=O)NC1CC2CCCC(C1)N2C1CC1 (centres undefined),inactive
13,Cc1ccccc1[C@@H]1C(C#N)=C(N)S[C@H]1C(=O)c1ccccc1,"inconclusive [inhibitor, partial curve, poor fit]"
14,O=C(CNC(=O)C1CCCCC1)NC1=NCCS1,inactive
15,C[C@H](CO)N1C[C@H](C)[C@@H](CN(C)S(=O)(=O)c2cccs2)Oc2c(NC(=O)Nc3ccc4c(c3)OCO4)cccc2C1=O,inactive
16,Cn1c(=O)c(C(=O)Nc2ncccc2O)c(O)c2ccccc21,"inconclusive [inhibitor, partial curve, poor fit]"
17,N#Cc1c(SCC(=O)Nc2nncs2)sc2c(O)cc(=O)[nH]c12,"inconclusive [inhibitor, partial curve, poor fit]"

row,SMILES,Potency
1,C=CC#CC[N+]1(CC#Cc2ccccc2)CCOCC1,inactive
2,Cc1cc(C)cc(NC(=O)CSc2nc3c(c(=O)[nH]2)CN(Cc2ccc(F)cc2)CC3)c1,"inconclusive [inhibitor, single point]"
3,Cc1cnc(N)c2c(=O)oc3ccccc3c12,inactive
4,O=C(Cc1ccccc1)Nc1cccc(N2CCCC2)c1,"inconclusive [inhibitor, partial curve, poor fit]"
5,NS(=O)(=O)c1ccc(N=Nc2c(O)c(C(=O)O)cc3ccccc23)cc1,active: 5.62 µM
6,O=C(CSc1ncccc1-c1nc2ccccc2[nH]1)Nc1ccc2c(c1)OCCO2,"inconclusive [inhibitor, partial curve, poor fit]"
7,Cc1ccc(NC(=O)CS(=O)CC(=O)Nc2ccc(N3CCOCC3)cc2)cc1Cl (centres undefined),"inconclusive [inhibitor, single point]"
8,O=C(CSc1nnnn1-c1ccc(F)cc1)c1ccc(O)c(O)c1,"inconclusive [inhibitor, partial curve]"
9,CCCCNC(=O)Nc1ccccc1C(=O)NCc1ccco1,"inconclusive [inhibitor, partial curve]"
10,COc1ccc(Cl)cc1C(=O)Nc1cccc(-c2ccc3nncn3n2)c1,"inconclusive [inhibitor, partial curve, poor fit]"
11,CCOC(=O)/C(C#N)=C(C)/C=C1\Sc2ccccc2N1CC,"inconclusive [activator, partial curve]"
12,C[C@@H]1CN([C@H](C)CO)C(=O)c2cc(NS(=O)(=O)c3ccc(F)cc3)ccc2O[C@@H]1CN(C)Cc1ccc(Cl)c(Cl)c1,"inconclusive [inhibitor, single point]"
13,CN(C)c1ccc(/C=C(/NC(=O)c2ccccc2)C(=O)N/N=C/c2ccc([N+](=O)[O-])c(O)c2)cc1,"inconclusive [inhibitor, partial curve, poor fit]"
14,O=C(CCNc1cccc(Cl)c1)c1ccco1,inactive
15,CCCCC1NC(C(=O)O)CS1 (centres undefined),inactive
16,C=CC[C@H](CC(=O)N(CCO)Cc1ccccc1)C(=O)N[C@H](C)COC(=O)[C@@H](CC=C)CC(=O)OC(C)(C)C,inactive
17,Cc1ccc(-c2ccc(CCC(=O)O)n2NC(=O)c2cccs2)cc1,inactive
